These are yes or no findings as the source states them, for the method shown. In cells and extracts the contact can be indirect. Some binding calls cover weakened binding; strength is not graded here.
Columns and labels:
Experiment in all cases: pull-down; only the target purified
[1] = molecular target: GST–NP fusion protein (influenza A virus A/PR/8/34 (PR8)) (UniProt P03466)
[2] = molecular target: full-length GST–M1 fusion protein (influenza A virus A/PR/8/34 (PR8)) (UniProt P03485)
[3] = molecular target: GST–M1 N+M domain fusion protein (influenza A virus A/PR/8/34 (PR8)) (UniProt P03485)
[4] = molecular target: GST–M1 middle domain fusion protein (influenza A virus A/PR/8/34 (PR8)) (UniProt P03485)
[5] = molecular target: GST–M1 M+C domain fusion protein (influenza A virus A/PR/8/34 (PR8)) (UniProt P03485)

Amino acid sequences for entries named in this document (tags omitted).
UniProt P03466: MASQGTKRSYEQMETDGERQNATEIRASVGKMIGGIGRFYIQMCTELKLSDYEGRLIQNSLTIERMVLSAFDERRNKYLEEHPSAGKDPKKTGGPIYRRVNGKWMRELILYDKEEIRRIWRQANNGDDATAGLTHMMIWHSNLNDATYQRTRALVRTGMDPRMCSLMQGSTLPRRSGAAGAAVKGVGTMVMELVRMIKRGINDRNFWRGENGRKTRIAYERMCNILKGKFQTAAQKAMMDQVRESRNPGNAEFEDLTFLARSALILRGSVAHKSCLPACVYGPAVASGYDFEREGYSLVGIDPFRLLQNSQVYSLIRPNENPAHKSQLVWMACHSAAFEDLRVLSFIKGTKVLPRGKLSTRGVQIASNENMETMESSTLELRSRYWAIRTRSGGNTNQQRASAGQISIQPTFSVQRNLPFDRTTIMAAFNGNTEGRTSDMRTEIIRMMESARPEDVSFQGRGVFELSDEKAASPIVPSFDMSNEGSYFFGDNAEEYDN

Substance	binding [1]	also measured
in vitro-translated M1 N+L polypeptide (from UniProt P03485 1-90) (domain or fragment)	no binding	
in vitro-translated M1 N domain (from UniProt P03485 1-75) (domain or fragment)	no binding	
in vitro-translated M1 M+C fragment (from UniProt P03485 88-252) (domain or fragment)	binds	
[35S]methionine-radiolabelled, in vitro-translated NP (from UniProt P03466 1-498)		binding [2]: binds; binding [3]: binds; binding [4]: binds; binding [5]: binds
untagged WT radiolabelled M1, in vitro translated (from UniProt P03485 1-252)	binds	
in vitro-translated M1 middle domain (from UniProt P03485 88-165) (domain or fragment)	binds	
